The record followed here is PubChem BioAssay AID360 (National Center for Advancing Translational Sciences (NCATS), 2006).

Molecules are shown by their SMILES. The campaign covered roughly 48,000 compounds. About 550 (1.1%) were called active. Not shown: some 4% with an inconclusive outcome. No stated cut-off is given here; in the data, active means potency below about 15 µM; inconclusive means mostly about 16 µM to 33 µM; inactive means weaker than that. The list shows a part of the results.
Potency means the concentration at half of the fitted maximal effect.

Chain of UniProt P04062 (P04062 whole entry, looked up): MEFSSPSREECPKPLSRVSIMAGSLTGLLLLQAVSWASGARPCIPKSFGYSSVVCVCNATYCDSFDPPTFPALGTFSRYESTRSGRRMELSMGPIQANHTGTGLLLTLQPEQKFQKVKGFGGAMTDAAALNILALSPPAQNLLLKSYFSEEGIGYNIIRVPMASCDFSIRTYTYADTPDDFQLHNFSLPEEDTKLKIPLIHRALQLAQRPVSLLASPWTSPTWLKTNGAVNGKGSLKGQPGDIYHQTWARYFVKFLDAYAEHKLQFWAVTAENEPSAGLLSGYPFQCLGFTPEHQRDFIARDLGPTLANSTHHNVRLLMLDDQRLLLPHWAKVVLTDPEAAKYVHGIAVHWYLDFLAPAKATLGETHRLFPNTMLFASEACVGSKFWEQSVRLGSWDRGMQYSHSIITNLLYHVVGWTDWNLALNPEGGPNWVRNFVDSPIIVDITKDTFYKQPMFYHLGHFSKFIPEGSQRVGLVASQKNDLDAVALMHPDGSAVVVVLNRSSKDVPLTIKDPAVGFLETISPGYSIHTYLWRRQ

This assay deals with Lysosomal acid glucosylceramidase (Homo sapiens) (UniProt P04062). Put plainly: Glucocerebrosidase.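 Further: the screen sought inhibitors.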 The following applies: purified enzyme, resorufin glucoside fluorescence (screen aimed at inhibitors), 20 min. The essentials:
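Compounds titrated against 0.2 nM normal enzyme, 30 uM resorufin beta-D-glucopyranoside substrate, citrate/phosphate buffer with taurocholate and tween-20, pH 5.9. Reaction ran 20 min at room temperature; fluorescence (Ex 548/Em 600) gave AC50.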
As for `COc1ccccc1CNC(=O)N[C@@H](Cc1ccccc1)C(=O)O`, the Potency is inactive: > 76.9 µM. With `N#CC1=C(N)N=C(SCc2ccccc2)C(C(N)=O)C12CCCCC2` (centres undefined) the figure was inactive: > 76.9 µM; with `COc1ccccc1OCc1nc(C#N)c(NCc2ccco2)o1`, inactive: > 76.9 µM; with `CCCc1[nH]nc2c1C1(CCOC1C)C(C#N)=C(N)O2` (centres undefined), inactive: > 76.9 µM. The result for `COc1ccc(C2C(C(=O)c3sc(C)nc3C)=C(O)C(=O)N2CCN(C)C)cc1` (centres undefined) reads inactive: > 76.9 µM; that for `C=CCn1c(SCC(=O)Nc2ccccc2CC)nnc1-c1ccncc1`, inactive: > 76.9 µM.

On to `CC1CN(C(=O)c2cccc(C(=O)N3CC(C)OC(C)C3)c2)CC(C)O1` (centres undefined), for which the Potency was inactive: > 76.9 µM.

With `Cc1ccc(C)c(C2=CSC3=NCCN23)c1`, the Potency was inactive: > 76.9 µM. With `CCN(CC)CCCn1c(C)cc2c(c1=O)C(c1cc(OC)c(OC)cc1OC)C(C#N)=C(N)O2` (centres undefined) the figure was inactive: > 76.9 µM; with `CNC(=O)CSc1nnc(COc2ccc(Cl)cc2)n1CCOC`, inactive: > 76.9 µM.

With `Cc1nccn1CC(=O)O`, the Potency is inactive: > 76.9 µM. `COc1ccccc1N1CCN(C(c2cccs2)c2nnnn2C2CCCC2)CC1` (centres undefined): the Potency is inactive: > 76.9 µM. The result for `c1nc(N2CCOCC2)c2[nH]cnc2n1` reads inactive: > 76.9 µM; that for `O=C1OCCC1Sc1nnc(-c2ccc(Br)cc2)o1` (centres undefined), inactive: > 76.9 µM. With `CN(C(=O)C1CCOC1)c1nnc(-c2cnccn2)s1` (centres undefined) the figure was inactive: > 76.9 µM; with `O=C(OCC#CCSc1nnc(-c2ccncc2)o1)c1cccs1`, inactive: > 76.9 µM; with `Nc1nc(C(=O)N2CCOCC2)nn1S(=O)(=O)c1ccc(Cl)cc1`, inactive: > 76.9 µM. In the case of `O=C(OC1CCOC1=O)c1ccc(-c2nc3ccccc3s2)s1` (centres undefined), the Potency is inactive: > 76.9 µM. With `CCC(=O)NC1(C(F)(F)F)C(=O)NC(C)=C1C#N` (centres undefined) the figure was inactive: > 76.9 µM. The result for `CN(Cc1ccccc1)c1nc2c(c(=O)[nH]c(=O)n2C)n1CCSc1nc2ccccc2[nH]1` reads inactive: > 76.9 µM; that for `CC(C)(C)c1ccc(C(=O)NCc2cccnc2)cc1`, inactive: > 76.9 µM. In the case of `Cc1nn(CC(=O)N(C)C)c(=O)c2ccccc12`, the Potency was inactive: > 76.9 µM. With `Cc1cc(C)n2nc(SCC3COc4ccccc4O3)nc2n1` (centres undefined) the figure was inactive: > 76.9 µM; with `CCOC(=O)Cc1csc(NC(=O)c2cccc(N3C(=O)CCC3=O)c2)n1`, inactive: > 76.9 µM; with `OCCN(Cc1ccccc1)Cc1cccc(F)c1`, inactive: > 76.9 µM. With `Cc1ccc(Cn2c(CN3CCOCC3)nc3c2c(=O)n(C)c(=O)n3C)cc1` the figure was inactive: > 76.9 µM; with `CN(C)C(CNc1nnnn1-c1ccccc1)c1ccco1` (centres undefined), inactive: > 76.9 µM. The result for `Cc1cc(C)nc(NC(=O)CCCC(=O)O)c1` reads inactive: > 76.9 µM; that for `O=C(Nc1ccc(S(=O)(=O)Nc2cnc3ccccc3n2)cc1)c1ccc(Br)o1`, inactive: > 76.9 µM.

On to `CN(c1ccccc1C(=O)NCc1ccco1)S(C)(=O)=O`, for which the Potency is inactive: > 76.9 µM. The result for `O=C(NCCCN1CCOCC1)C1CC(=O)N(C2CCCCC2)C1` (centres undefined) reads inactive: > 76.9 µM; that for `O=C(CCCN1C(=O)c2cccnc2C1=O)N1CC(=O)N(CCc2ccccc2)C(=O)C1`, inactive: > 76.9 µM; that for `Cc1ccnc(SCC(=O)N2CCC(C(N)=O)CC2)n1`, inactive: > 76.9 µM. The result for `O=C(CSc1nnc(CNc2ccc(F)cc2)n1Cc1ccccc1)N1CCOCC1` reads inactive: > 76.9 µM; that for `Cc1ncoc1C(=O)Nc1ccc(Oc2ccccc2)cc1`, inactive: > 76.9 µM. The result for `CCOC(=O)c1sc(/N=C/Nc2nc(C)c(C(=O)OCC)s2)nc1C` reads inactive: > 76.9 µM; that for `CCOc1cc(S(=O)(=O)N2CCCCC2)ccc1Cl`, inactive: > 76.9 µM.

For the compound `O=C(Cn1c(=O)n(Cc2ccco2)c(=O)c2c3c(sc21)CCCC3)Nc1ccccc1`, the Potency was inactive: > 76.9 µM.

Take `COc1ccc(OC)c(-n2nnnc2SCC(=O)NCCc2ccccc2)c1`: the Potency was inactive: > 76.9 µM. With `COc1ccc(OC)c(C2=C[N+](=O)C(C)(C)C(C)(C)N2[O-])c1`, the Potency was inactive: > 76.9 µM. In the case of `O=c1ccnc(SCc2ccccc2Cl)[nH]1`, the Potency was inactive: > 76.9 µM. With `CC(=O)c1c(COC(=O)c2cccnc2)nc2ccccc2[n+]1[O-]`, the Potency is inactive: > 76.9 µM.

For `CCOC(=O)CSC1=C(C#N)C(c2ccco2)C(C(=O)OCc2ccccc2)=C(C)N1` (centres undefined), the Potency result is “inactive”. With `CCOc1ccccc1OCC(O)CNC` (centres undefined) the figure was inactive: > 76.9 µM. With `CNC(=O)CSCCn1c(SCC(=O)NC)nc2ccccc2c1=O`, the Potency is inactive: > 76.9 µM.

For `CCOC(=O)c1nn(-c2c(C)n(C)n(-c3ccccc3)c2=O)cc1O`, the Potency is inactive: > 76.9 µM. With `CCCCC(=O)NCc1ccc2c(c1)cc(C)n2C` the figure was inactive: > 76.9 µM; with `Cc1ccccc1OCC(=O)NCCN1CCCC1`, inactive: > 76.9 µM. With `CCCn1cc(C(CC(=O)O)C(=O)O)c2ccccc21` (centres undefined) the figure was inactive: > 76.9 µM; with `O=C(NCCCN1CCOCC1)C1(c2ccccc2)CCCC1`, “inactive”; with `O=S(=O)(c1ccc2c(c1)OCCO2)N1CCN(c2cccc(Cl)c2)CC1`, inactive: > 76.9 µM. The result for `Cc1cc2ccccc2c(=O)n1CC(=O)NCC(=O)N1CCN(c2cccc(Cl)c2)CC1` reads inactive: > 76.9 µM; that for `Cn1nccc1C(=O)NCCN1C(=O)OC(C)(C)C1(C)O` (centres undefined), inactive: > 76.9 µM. `COC(=O)c1sc(=S)n(-c2ccccc2)c1N`: the Potency is inactive: > 76.9 µM. With `Cc1sc(NC(=O)c2ccco2)nc1-c1ccc2c(c1)CC(C)N2C(=O)C1CC1` (centres undefined) the figure was inactive: > 76.9 µM; with `COc1ccccc1Cn1c(=O)c2ccccc2n2c(SCC(=O)N3CCCCC3)nnc12`, inactive: > 76.9 µM; with `CCCc1cc(=O)[nH]c(SCC(=O)N(CC(C)C)C2CCS(=O)(=O)C2)n1` (centres undefined), inactive: > 76.9 µM.

Regarding `Cc1ccc(S(=O)(=O)NC(CC(=O)N2CCc3ccccc32)c2ccco2)cc1` (centres undefined), the Potency is inactive: > 76.9 µM. The result for `CCn1c(-c2ccc(N(C)C)cc2)nc2ccccc21` reads inactive: > 76.9 µM; that for `COc1ccc(-c2nnc3ccc(SC(C(C)=O)C(C)=O)nn23)cc1OC`, inactive: > 76.9 µM. The result for `COC(=O)c1cc(=O)nc2sc(-c3cccs3)nn12` reads inactive: > 76.9 µM; that for `CCn1c(=O)cc(OCC(=O)NCCCN2CCC(C)CC2)c2ccccc21`, inactive: > 76.9 µM; that for `COC(=O)COc1ccc(S(=O)(=O)Nc2ccc(NC(C)=O)cc2)cc1`, inactive: > 76.9 µM. With `CCCCCCNC(=O)CC(NS(=O)(=O)c1ccc(NC(C)=O)cc1)C(C)C` (centres undefined) the figure was inactive: > 76.9 µM; with `COc1ccc(OC(C)C(=O)N2CCc3ccccc3C2)cc1` (centres undefined), inactive: > 76.9 µM. As to `CC1CCN(S(=O)(=O)c2ccc(NC(=O)Cn3nnc(-c4ccccc4F)n3)cc2)CC1`, the Potency was inactive: > 76.9 µM. With `O=C(NCc1ccco1)C1CC(=O)N(c2ccc(F)cc2)C1` (centres undefined) the figure was inactive: > 76.9 µM. The result for `O=C(CSc1nnnn1C1CCCC1)c1ccc2c(c1)OCCO2` reads inactive: > 76.9 µM; that for `O=C(CCCC(=O)N(CC(=O)NC1CCCCC1)CC1CCCO1)Nc1ccccn1` (centres undefined), inactive: > 76.9 µM; that for `O=c1nc(N2CCCC2)nc(Nc2ccccc2)[nH]1`, inactive: > 76.9 µM. The result for `Cc1cccc(C)c1NC1=NC(C)(C)N=C(N)N1` reads inactive: > 76.9 µM; that for `CC(=O)c1cccc(-n2nnnc2SCC(=O)Nc2ccccc2N2CCCCC2)c1`, inactive: > 76.9 µM; that for `O=C(Oc1ccc(-c2nnco2)cc1)N1CCCCC1`, inactive: > 76.9 µM. With `O=C(c1c(Cl)cccc1Cl)N1CCCCCC1`, the Potency was inactive: > 76.9 µM.

Turning to `CN1CCN(C(=O)C2C3C=CC(C3)C2C(=O)O)CC1` (centres undefined), the Potency is inactive: > 76.9 µM. With `O=S(=O)(NC1CCCC1)c1ccccc1Cl` the figure was inactive: > 76.9 µM; with `CCCC(=O)Nc1nn(C)c2nc3c(C)cccc3cc12`, inactive: > 76.9 µM.

In the case of `CCC(C)C(=O)Nc1cc(OC)c(OC)cc1C(=O)O` (centres undefined), the Potency is inactive: > 76.9 µM. With `CCC(C)[C@H](NC(=O)NCCCN1CCOCC1)C(=O)OC` (some centres undefined) the figure was inactive: > 76.9 µM; with `Cc1ccccc1-n1nc(C(=O)O)c(C)c(C#N)c1=O`, inactive: > 76.9 µM; with `O=S(=O)(NC1CCCCCC1)c1cccc2cccnc12`, inactive: > 76.9 µM. For the compound `Cc1c(C(=O)NCCc2ccccc2)oc2ccc(S(=O)(=O)N3CCOCC3)cc12`, the Potency was inactive: > 76.9 µM. The result for `CCOC(=O)/C=C1\SCC(=O)N1CC(=O)NC1CCCCC1` reads inactive: > 76.9 µM; that for `O=C(NC(O)C(=O)c1cccs1)c1cccnc1` (centres undefined), inactive: > 76.9 µM. The result for `COc1ccc(N2CC(C(=O)OCC(=O)c3cccc(OC)c3)CC2=O)cc1` (centres undefined) reads inactive: > 76.9 µM; that for `O=C(Cn1cnc2c(nnn2Cc2ccc(F)cc2)c1=O)OCc1ccccc1`, inactive: > 76.9 µM. The result for `CC(=O)c1cccc(NC(=O)c2nccnc2C(=O)O)c1` reads inactive: > 76.9 µM. As to `CCSc1nc(N)c2c3c(sc2n1)CN(C)CC3`, the Potency was inactive: > 76.9 µM. With `Cc1ccc(C(=O)COC(=O)CCc2nc3ccccc3[nH]c2=O)cc1C` the figure was inactive: > 76.9 µM; with `OC1(c2ccc(Br)cc2)CCNCC1`, inactive: > 76.9 µM; with `Cc1nn(CC(=O)NCC2CCCO2)c(=O)c2ccccc12` (centres undefined), inactive: > 76.9 µM. The result for `COc1ccc2nc(SCC(=O)NC(C)(C)C)[nH]c2c1` reads inactive: > 76.9 µM; that for `COc1ccc(OC)c(C2C(C(C)=O)=C(O)C(=O)N2c2ccc(O)cc2)c1` (centres undefined), inactive: > 76.9 µM; that for `Cn1c(=O)c2c(nc(CN3CCCCC3)n2CCc2ccccc2)n(C)c1=O`, inactive: > 76.9 µM.
